# Measured values published in the supplement of paper PMC8728848.
# Some of the results follow.
# Key:
# Assay in all cases: glycan array binding signal (z-score within array); higher = stronger binding
# Conditions in all cases: glycan notation: IUPAC condensed, linker removed
# [1] = target: Gal(b1-4)GlcNAc(b1-3)Gal(b1-4)GlcNAc(b1-3)Gal(b1-4)GlcNAc(b1-3)Gal(b1-4)GlcNAc(b1-3)Gal(b1-4)GlcNAc(b1-2)[Gal(b1-4)GlcNAc(b1-3)Gal(b1-4)GlcNAc(b1-3)Gal(b1-4)GlcNAc(b1-3)Gal(b1-4)GlcNAc(b1-3)Gal(b1-4)GlcNAc(b1-6)]Man(a1-6)[Gal(b1-4)GlcNAc(b1-3)Gal(b1-4)GlcNAc(b1-3)Gal(b1-4)GlcNAc(b1-3)Gal(b1-4)GlcNAc(b1-3)Gal(b1-4)GlcNAc(b1-2)Man(a1-3)]Man(b1-4)GlcNAc(b1-4)[Fuc(a1-6)]GlcNAc
# How it was run: (§1)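 Glycan array binding is given as a within-array Z-score, which can be read as non-binding when negative. The arrays, 3228 of them, came from the Consortium for Functional Glycomics database and were retained only where the protein sequence was available. Z-scores were averaged across arrays of the same protein sequence at different concentrations or buffers and across linkers.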
# [2] = target: Gal(b1-4)GlcNAc(b1-3)Gal(b1-4)GlcNAc(b1-3)Gal(b1-4)GlcNAc(b1-3)Gal(b1-4)GlcNAc(b1-3)Gal(b1-4)GlcNAc(b1-3)Gal(b1-4)GlcNAc(b1-2)Man(a1-3)[Gal(b1-4)GlcNAc(b1-3)Gal(b1-4)GlcNAc(b1-3)Gal(b1-4)GlcNAc(b1-3)Gal(b1-4)GlcNAc(b1-3)Gal(b1-4)GlcNAc(b1-3)Gal(b1-4)GlcNAc(b1-2)Man(a1-6)]Man(b1-4)GlcNAc(b1-4)GlcNAc
# How it was run: as §1
# [3] = target: Gal(b1-4)GlcNAc(b1-3)Gal(b1-4)GlcNAc(b1-3)GalNAc
# How it was run: as §1
# [4] = target: Gal(b1-4)GlcNAc(b1-3)Gal(b1-4)GlcNAc(b1-3)[Gal(b1-4)GlcNAc(b1-3)Gal(b1-4)GlcNAc(b1-6)]GalNAc
# How it was run: as §1
# [5] = target: Gal(b1-4)GlcNAc(b1-3)Gal(b1-4)GlcNAc(b1-6)[Gal(b1-3)]GalNAc
# How it was run: as §1
# [6] = target: Gal(b1-4)GlcNAc(b1-3)Gal(b1-4)[Fuc(a1-3)]GlcNAc(b1-3)Gal(b1-4)[Fuc(a1-3)]GlcNAc
# How it was run: as §1
# [7] = target: Gal(b1-4)GlcNAc(b1-3)GalNAc
# How it was run: as §1
# [8] = target: Gal(b1-4)GlcNAc(b1-3)[Fuc(a1-3)GlcNAc(b1-6)]Gal(b1-4)Glc
# How it was run: as §1
# [9] = target: Gal(b1-4)GlcNAc(b1-3)[Gal(b1-4)GlcNAc(b1-6)]Gal(b1-4)GlcNAc
# How it was run: as §1
# [10] = target: Gal(b1-4)GlcNAc(b1-3)[Gal(b1-4)GlcNAc(b1-6)]GalNAc
# How it was run: as §1
# [11] = target: Gal(b1-4)GlcNAc(b1-3)[GlcNAc(b1-6)]Gal(b1-4)GlcNAc
# How it was run: as §1
# [12] = target: Gal(b1-4)GlcNAc(b1-6)Gal(b1-4)GlcNAc
# How it was run: as §1
# [13] = target: Gal(b1-4)GlcNAc(b1-6)GalNAc
# How it was run: as §1
# [14] = target: Gal(b1-4)GlcNAc(b1-6)[Gal(b1-3)]GalNAc
# How it was run: as §1
# [15] = target: Gal(b1-4)GlcNAc(b1-6)[Gal(b1-4)GlcNAc(b1-3)]GalNAc
# How it was run: as §1
# Gal(b1-4)GlcNAc6P = target: Gal(b1-4)GlcNAc6P
# How it was run: as §1
# Gal(b1-6)Gal = target: Gal(b1-6)Gal
# How it was run: as §1
# Gal3S(b1-3)GalNAc = target: Gal3S(b1-3)GalNAc
# How it was run: as §1
# Gal3S(b1-3)GlcNAc = target: Gal3S(b1-3)GlcNAc
# How it was run: as §1
# [16] = target: Gal3S(b1-3)[Fuc(a1-4)]GlcNAc
# How it was run: as §1
# Gal3S(b1-4)Glc = target: Gal3S(b1-4)Glc
# How it was run: as §1
# Gal3S(b1-4)Glc6S = target: Gal3S(b1-4)Glc6S
# How it was run: as §1
# Gal3S(b1-4)GlcNAc = target: Gal3S(b1-4)GlcNAc
# How it was run: as §1
binder,measurement,setting,value
"AAL (Agrocybe aegerita), Q6WY08 (protein) MQGVNIYNISAGTSVDLAAPVTTGDIVTFFSSALNLNAGAGNPNNTTLNLFAENGAYLLHIAFRLQENVIIFNSRQPDGPWLVEQRVSDVANQFAGIDGKAMVTVFDHGDKYQVVINEKTVIQYTKQISGLTLSLSYNATEETSIFSTVVEAVTYTGLALEHHHHHH",glycan array binding signal (z-score),[1],0.652
same,glycan array binding signal (z-score),[2],-0.099
same,glycan array binding signal (z-score),[3],-0.131
same,glycan array binding signal (z-score),[4],-0.125
same,glycan array binding signal (z-score),[5],-0.154
same,glycan array binding signal (z-score),[6],-0.155
same,glycan array binding signal (z-score),[7],-0.152
same,glycan array binding signal (z-score),[8],-0.135
same,glycan array binding signal (z-score),[9],-0.14
same,glycan array binding signal (z-score),[10],-0.153
same,glycan array binding signal (z-score),[11],-0.137
same,glycan array binding signal (z-score),[12],-0.143
same,glycan array binding signal (z-score),[13],-0.113
same,glycan array binding signal (z-score),[14],-0.13
same,glycan array binding signal (z-score),[15],-0.124
same,glycan array binding signal (z-score),Gal(b1-4)GlcNAc6P,-0.163
same,glycan array binding signal (z-score),Gal(b1-6)Gal,-0.137
same,glycan array binding signal (z-score),Gal3S(b1-3)GalNAc,9.4
same,glycan array binding signal (z-score),Gal3S(b1-3)GlcNAc,0.178
same,glycan array binding signal (z-score),[16],-0.147
same,glycan array binding signal (z-score),Gal3S(b1-4)Glc,0.095
same,glycan array binding signal (z-score),Gal3S(b1-4)Glc6S,1.42
same,glycan array binding signal (z-score),Gal3S(b1-4)GlcNAc,1.07
